Sequences and labels used below:
B1: chr2:9570881:9570882:+_ENSG00000119203_ENST00000238112|hu_hu|FALSE|FALSE (ssRNA)
RNA: GGGAGUUCUACAGUCCGACGAUCACUUGUCUUCUGUAGAAACCAGGGCAGAGCUCCACAGUGAUCCAAAUGGAAAUGACUAAUUAAUAGGAGAUCAAUCUCAGCUGGGUCAAUUAAAUCAAUAUAAGGAAGAGCAUCCAUUCCCAACAGAGGAUUGAGCAUCA
B2: chr1:244855233:244855234:+_ENSG00000121644_ENST00000302550|hu_mus|hu_hu_hu_mus_True|78_98 (ssRNA)
RNA: GGGAGUUCUACAGUCCGACGAUCCAUCAGAUGGUAGGCAUUGCCUUUAUACUCUUUUCCCAGUUCUUCUACAAUUUUCUCUAUAUCAUCUUCUAGAAAGUCCGUACUUCCUAGAACAACAGCUUCUUUAAAUUUAAAUGUUUCCAACAGAGGAUUGAGCAUCA
B3: 60093252_60098224_983_3pUTR_ENSMUSG00000020986_ENSMUST00000021375|mouse|control|control (ssRNA)
RNA: GGGAGUUCUACAGUCCGACGAUCAGUGUUGGGGAAAGUACACUCAAGCAGUCCCACAGCUAUGGAAAGCGCCACUCCUGAGGAACGCAGCGGUCUCUUUCCUUGUGGUACAGGCCAAGGGUCUCGCUGAAGUUCUCCCAGAAGCAACAGAGGAUUGAGCAUCA
B4: 86898947_86899067_1269_CDS_ENSMUSG00000020495_ENSMUST00000020801|mouse|control|control (ssRNA)
RNA: GGGAGUUCUACAGUCCGACGAUCCUGUGGGUUCCUGCCCACACUGUCAUCAAAACCUUUUUUGCUUAGGACCAGCUCCACGUGCUGCCACAGGAAUUCUCGAAGAGUGAAAUCCACUAGCUGGCCUGAAGAACUCGAGGUGCUCAACAGAGGAUUGAGCAUCA
B5: chr10:79795341:79795342:+_ENSG00000138326_ENST00000360830|hu_hu|motif|central (ssRNA)
RNA: GGGAGUUCUACAGUCCGACGAUCAUGAGUUCUGAAUCCAAAUACAAAGAUGACAUCCGGUGUGGUCUUGUACAUUUUGGCGGGUUUUUCCCGAAUUUCUGUCUUAGGCACUGUCGCCUUCCCGGGGUGAAGGACAUCAAUGACCAACAGAGGAUUGAGCAUCA
B6: chr6:119226881:119226882:+_ENSG00000111875_ENST00000229595|hu_hu|FALSE|FALSE (ssRNA)
RNA: GGGAGUUCUACAGUCCGACGAUCUGGAUUUUCCCUUAAUUCUGUCUCAGUAUAUUCAUUAUUUACAUAAUAGCCAACUCUAAUAAAUUCUUGUCCUCGAUAGGUACAAGUAAUUAGCACAACAGUUACGCCUACUGCAUCUGCCAACAGAGGAUUGAGCAUCA
B7: chr7:149068622:149068623:-_ENSMUSG00000025139_ENSMUST00000001950|mus_hu|mus_mus_mus_hu_False|1_38 (ssRNA)
RNA: GGGAGUUCUACAGUCCGACGAUCGUGAGGCCUCUGAGUGUGGCUUGUGGUCUGUCCUGGGUUAGAGUUGUUAAUAUCACGGAACAUACCAUCUAGAGAGGUUCUGCCCCGCCUGACACCUUCAUUCCCAAUGGAGAAUCUGCUCAACAGAGGAUUGAGCAUCA
B8: chr7:149068622:149068623:-_ENSMUSG00000025139_ENSMUST00000001950|mus_hu|mus_mus_mus_hu_False|18_48 (ssRNA)
RNA: GGGAGUUCUACAGUCCGACGAUCGUGAGGCCUCUGAGUGUGGCUUGUGGUCUGUCCUGGGUUAGAGUUGUUAAUAUCACGGAACAUACCACUUAAGACGUUCCAGUCCCGCCUGACCAUCCACCCUCCAAUGGAGAAGAAAUCCAACAGAGGAUUGAGCAUCA
B9: chr1:114133195:114133196:+_ENSG00000081026_ENST00000369615|hu_hu|FALSE|FALSE (ssRNA)
RNA: GGGAGUUCUACAGUCCGACGAUCCAUUUCCCAGUUUUUGGGCAGUGGUUCCAGAGUCUCAUCUCUCAUCAUAUAAUUUCUAAAGUCCAUGGAGCUAUUUGUUUGGUUGUAACUUGGAACAGUCUUCAUCCAGUCAGAUGACUCCAACAGAGGAUUGAGCAUCA
B10: chr2:128605524:128605525:-_ENSG00000144231_ENST00000272645|hu_hu|FALSE|FALSE (ssRNA)
RNA: GGGAGUUCUACAGUCCGACGAUCCAAGGCUGCUCCAAGAUUCCAUGUCACCUGGGCCUGUGAGUUAUUUGAAACAGCAACCUAACCCCACGCCAAGCUGGGCUGUUUUCUCCAAAGGAAUUCUCAACUGUCUUCAACAGAAUUCAACAGAGGAUUGAGCAUCA
B11: chr10:98487791:98487792:+_ENSMUSG00000019943_ENSMUST00000020107|mus_mus|motif|central (ssRNA)
RNA: GGGAGUUCUACAGUCCGACGAUCCAUGCAGCACGUUAAUGGCAAAUUCAAGACGAGGAGUCCACCUUGGGCUCCUGGUCGGAAUAUGCGUCCCAGCAUAUCAUGCUACCUCUUUUUACAGUAUGAAUAACUACAAACACCUGACAACAGAGGAUUGAGCAUCA
B12: chrX:45560084:45560085:-_ENSMUSG00000036985_ENSMUST00000037960|mus_hu|motif|central (ssRNA)
RNA: GGGAGUUCUACAGUCCGACGAUCGCGAUUACACGAGAGAAGAAACAGAGGCUGAGCCCAGCUUUGAAAUCACGUUGCCUGCGGUUCCUGCCGCUGGGUCAAACAUCAUCAAAAGUCCAAUUGCUAGCCCUGGAAGACAAUCUCCAACAGAGGAUUGAGCAUCA
B13: chr19:16212804:16212805:+_ENSG00000167460_ENST00000300933|hu_mus|hu_hu_hu_mus_False|68_68 (ssRNA)
RNA: GGGAGUUCUACAGUCCGACGAUCAACAAUUCUGGAGUGAAGGAAAGAUGUAACAUGGAACAGCAUUCCAUCUAUUACAGAAGGCACAUGGGCAACAAUGAUCACCCCAGCAUUCUCGCUUGGAAUGCUUAAAGACAAUCUGUUCAACAGAGGAUUGAGCAUCA
B14: chr6:41757443:41757444:+_ENSG00000214736_ENST00000398881|hu_mus|hu_hu_hu_mus_False|8_28 (ssRNA)
RNA: GGGAGUUCUACAGUCCGACGAUCGAACCGUGCAGAGGCAACAUCUCAGCCGACACUGGGGGAUGGGGGGGCAGUGGGGGGGGGUUCAGGCAAGGAGAGGGAGUCAACCCAUCUGAACACUCAGGUAGCUGCCAUCAGUCACAGCAACAGAGGAUUGAGCAUCA

Some of the results follow.

This assay addresses T1, UNK ZnF1-3 (human, UniProt Q9C0B0 31-174).
T1 sequence: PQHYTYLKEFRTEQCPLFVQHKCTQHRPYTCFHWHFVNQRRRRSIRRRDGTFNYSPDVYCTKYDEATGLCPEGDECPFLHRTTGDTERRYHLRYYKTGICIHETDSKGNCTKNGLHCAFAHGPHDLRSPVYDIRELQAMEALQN
The assay is described as follows: nsRBNS (natural sequence RNA bind-n-seq); RBNS binding buffer (assumed for nsRBNS): 25 mM Tris pH 7.5, 150 mM KCl, 3 mM MgCl2, 0.01% Triton X-100, 500 ug/ml BSA, 20 U/ml SUPERase-In, 4 C; UNK is unkempt and MSI1 is Musashi-1; names of the RNAs are library labels; protein concentration not given here; high values mean tight binding.
As for B1, the binding signal turned out to be 2.33 enrichment R. Next, B2: 1.41 enrichment R; B3: 0.383 enrichment R. Next, B4: 0.903 enrichment R. Under B5 stands 0.935 enrichment R; under B6, 0.818 enrichment R. Take B7: the binding signal worked out at 0.745 enrichment R.

B8 had a binding signal of 0.707 enrichment R. Next, B9: 0.699 enrichment R.

As to B10, the binding signal turned out to be 1.09 enrichment R. Next, B11: 0.896 enrichment R; B12: 1.46 enrichment R; B13: 0.862 enrichment R. Under B14 stands 1.61 enrichment R.

The values are drawn from article PMC12136788.
